Assay results from PMC4336329 (PLoS ONE, 2015).
About 14,000 (4.5%) of roughly 310,000 compounds showed an effect of 50% or more. Effects have a minus sign here. This is one part of the list.

Each compound was assayed against human ether-à-go-go-related gene (hERG) potassium channel (human, UniProt Q12809) (assay: primary screen, population patch clamp on CHO cells stably expressing hERG).
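Note: peak tail current of the secondary pulse compared with the same well before compound.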

human ether-à-go-go-related gene (hERG) potassium channel, sequence (Q12809 whole entry, looked up): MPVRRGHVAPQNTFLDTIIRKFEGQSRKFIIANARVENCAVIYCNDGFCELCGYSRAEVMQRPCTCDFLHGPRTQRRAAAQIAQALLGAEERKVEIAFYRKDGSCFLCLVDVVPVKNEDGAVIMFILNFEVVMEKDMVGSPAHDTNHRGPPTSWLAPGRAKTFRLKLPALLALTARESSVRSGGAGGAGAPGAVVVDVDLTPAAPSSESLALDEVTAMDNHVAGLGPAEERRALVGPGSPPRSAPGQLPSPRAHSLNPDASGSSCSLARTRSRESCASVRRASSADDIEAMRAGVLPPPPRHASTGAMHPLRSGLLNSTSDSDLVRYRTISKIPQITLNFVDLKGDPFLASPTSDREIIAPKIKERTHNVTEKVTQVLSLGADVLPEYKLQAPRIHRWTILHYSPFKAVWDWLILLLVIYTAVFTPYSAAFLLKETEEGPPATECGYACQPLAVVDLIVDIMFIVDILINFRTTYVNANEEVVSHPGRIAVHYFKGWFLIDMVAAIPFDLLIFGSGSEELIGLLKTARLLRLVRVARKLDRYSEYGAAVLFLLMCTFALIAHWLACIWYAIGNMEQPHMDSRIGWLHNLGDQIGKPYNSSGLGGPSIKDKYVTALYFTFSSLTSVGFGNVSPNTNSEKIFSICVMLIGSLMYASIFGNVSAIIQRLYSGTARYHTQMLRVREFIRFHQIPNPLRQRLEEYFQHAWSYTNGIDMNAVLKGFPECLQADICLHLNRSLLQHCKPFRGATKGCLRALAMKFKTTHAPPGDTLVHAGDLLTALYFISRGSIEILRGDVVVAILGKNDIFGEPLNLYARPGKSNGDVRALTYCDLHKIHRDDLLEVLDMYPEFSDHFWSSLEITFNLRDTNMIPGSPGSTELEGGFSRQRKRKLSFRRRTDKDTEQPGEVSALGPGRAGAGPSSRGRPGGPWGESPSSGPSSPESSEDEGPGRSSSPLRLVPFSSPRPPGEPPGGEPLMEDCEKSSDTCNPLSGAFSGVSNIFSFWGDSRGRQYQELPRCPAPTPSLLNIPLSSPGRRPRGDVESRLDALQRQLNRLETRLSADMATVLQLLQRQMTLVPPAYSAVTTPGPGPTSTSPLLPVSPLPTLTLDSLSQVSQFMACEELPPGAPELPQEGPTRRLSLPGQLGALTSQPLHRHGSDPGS

| Structure (SMILES) | hERG current change (%, negative = inhibition) at 10uM [%] |
| --- | --- |
| COCC(C)n1c(SCC(=O)Nc2ccc3c(c2)OCCO3)nc2ccccc2c1=O (centres unmarked) | -20.7 |
| [O-][Cl+3]([O-])([O-])[O-].c1ccc(-c2nc(N3CCOCC3)s[n+]2-c2ccccc2)cc1 | 7.64 |
| Cc1nc2ccc(NC(=O)c3nn(CC(C)C)c(=O)c4ccccc34)cc2s1 | -26 |
| CC(C)COc1cccc(C(=O)NC(=S)Nc2cccc(NC(=O)c3ccccc3Cl)c2)c1 | 7.6 |
| COc1ccc(C)cc1NC(=S)NC(C)c1ccc(OC)c(OC)c1 (centres unmarked) | -8.84 |
| COCCCNS(=O)(=O)c1ccc(Oc2ncc(C(F)(F)F)cc2Cl)cc1 | 5.64 |
| CN(C)c1ccc(N2C(=NC(=O)CCC3CCCC3)SC3CS(=O)(=O)CC32)cc1 (centres unmarked) | 17.1 |
| O=C(NCCC1CCCCN1S(=O)(=O)c1ccccc1)C(=O)NCc1ccccn1 (centres unmarked) | -10.3 |
| S=C(Nc1ccccc1)N1CCCCCCC1 | 8.2 |
| COc1cc(OC)cc(C(=O)OCCNC(=O)Cn2cnc3c2c(=O)n(C)c(=O)n3C)c1 | 0.82 |
| CC(=O)[C@@]1(O)CC[C@H]2[C@@H]3CCC4=CC(=O)CC[C@]4(C)[C@H]3[C@@H](O)C[C@@]21C | 17 |
| Brc1ccc(-c2noc(C3CCCCC3)n2)cc1 | -7.78 |
| O=C1/C(=C/c2ccccc2Cl)SC(=S)N1CCCC(=O)N(CCO)c1ccccc1 | -12.8 |
| O=C(O)C(=O)O.OC1CCCN(CC(O)COC(c2ccc(F)cc2)c2ccc(F)cc2)C1 (centres unmarked) | -57.6 |
| COc1ccc(CCNC(=O)c2ccc3nc4cc(Cl)ccc4c(=O)n3c2)cc1OC | -9.27 |
| CC#CC[N+](C)(CC#CC)CC(=O)c1ccccc1.[Br-] | 25.3 |
| Cc1ccccc1CSc1ccc2nnc(-c3ccccn3)n2n1 | -81.6 |
| Cc1ccc(NS(=O)(=O)c2ccc(C(=O)N3CCCN(C)CC3)cc2)cc1 | -10.6 |
| CCCOc1ccc(N2C(=O)CC(N3CCN(c4ccccc4F)CC3)C2=O)cc1 (centres unmarked) | -9.83 |
| O=C(O)CCC(=O)Nc1ccc(C(=O)OC2CCCCC2)cc1 | 10.9 |
| COc1cc(C2CC(=O)Oc3c2c(=O)n(C)c2ccccc32)cc(OC)c1OC (centres unmarked) | 12.3 |
| Cn1ncc(Cl)c1C(=O)N/N=C/c1cc2c(cc1[N+](=O)[O-])OCO2 | -7.29 |
| O=c1cc(O)c2sc(Nc3cccc(C(F)(F)F)c3)nc2[nH]1 | -32.5 |
